Values marked as one replicate rest on one cluster of the flow cell; about a third of the high ones do not repeat.
Tested on: ATP
Assay: switch fluorescence ratio, 500 uM ATP over buffer (Cy3 cluster intensity, sum of 5 cycles each) (fold (ratio)); higher = stronger signal-on switching upon ATP binding; sequences stand for … in TCGTCGGCAGCGTCAGATGTGTATAAGAGACAGTTTTTTTTTTTTTTTTTTTTTTTTT…TC
Conditions: aptamer strand: ATP DNA aptamer (quencher-CACCTGGGGGAGTATTGCGGAGGAAGG + anchor), 100 nM annealed; ATP concentration: 500 uM; one replicate
How it was run: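 For every switch-domain sequence, the fluorescence ratio is the mean of per-cluster values, each being summed target-cycle Cy3 intensity over summed buffer-cycle Cy3 intensity. Clusters outside 100-1000 RFU were excluded. On a modified Illumina MiSeq flow-cell, the Cy3-labelled switching-strand clusters were annealed to 100 nM quencher-labelled ATP aptamer, imaged in selection buffer and then after 15 min with 500 uM ATP at 22 °C. Five such cycles were run, with NaOH stripping and re-annealing between them.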
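Further: ATP exposure 15 min at 22 °C before imaging.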

| Sequence | switch fluorescence ratio |
| --- | --- |
| AAAGTTTAAG | 1.04 |
| ATAGGCAAA | 0.997 |
| GAGTTCTGCC | 1.02 |
| AAGGCTACTG | 1.05 |
| CAACAATGTT | 1.01 |
| GGCTGACTCC | 2.56 |
| TTGTTAGCTA | 1.01 |
| TACCACTTTT | 0.985 |
| TAGTCTTAAA | 1.02 |
| GAATACAGTG | 1.06 |
| CGGGAGGTCC | 0.928 |
| ATTATGAAG | 1.03 |
| AAGACTAAGC | 1.03 |
| GCATTCGGGT | 1.01 |
| AATTATCACC | 1 |
| ATATGTTCTC | 1.01 |
| CAGAGGACGG | 0.983 |
| TGAGAGTTGT | 1 |
| TAAGGAGTAT | 1.02 |
| TAGGGTTTGA | 0.998 |
| CGTAGCCCGT | 1.04 |
| CCAGTGATAT | 1.13 |
| TAATTAAACT | 0.975 |
| GTAAAGGGGT | 1 |
| CGAATTATAA | 0.967 |
| CGCTGCTACA | 1.17 |

| Sequence | switch fluorescence ratio |
| --- | --- |
| TGATTCACAT | 1.03 |
| GCTACTGCTG | 1.02 |
| TGAGTTGCCC | 0.99 |
| AAATAGAGC | 1.05 |
| AAAGACGTGT | 1.02 |
| ATGCAAAATG | 1.53 |
| GGTCCAGTTG | 1.04 |
| GGGTAACCAA | 0.993 |
| CATTGATTTG | 1.01 |
| CCACAGTTTG | 1.02 |
| TGCTCGCGGG | 1.08 |
| TTCCAACAG | 1.03 |
| TCATGAAATG | 0.961 |
| TTTTGCCAGC | 0.968 |
| GATACAGAAT | 1.09 |
| GAAGCAAGGG | 3.05 |
| CATTTGGAAA | 1 |
| ATTACAGCGT | 1.05 |
| GGAGTTAGAT | 0.991 |
| GGTTCGTGAT | 0.996 |
| GTAAGTTTT | 0.999 |
| TATTTTGTTC | 1.05 |
| ACAATTCTAT | 0.948 |
| TTCTCCCG | 1.88 |
| CCGAATGGAA | 1.07 |
| ACGTAATGTA | 1.15 |

| Sequence | switch fluorescence ratio |
| --- | --- |
| AAAGTACGGA | 1.18 |
| TGCCCATTTG | 0.988 |
| GAATCCTGGA | 0.993 |
| CGTCGTCAGA | 1 |
| CGTTAGAACT | 0.997 |
| CTGGCATAGG | 0.969 |
| TCAAAGCATT | 1.04 |
| GCTAGCAGTT | 0.993 |
| CTGGCCT | 1.05 |
| AGGGTGCAGG | 0.993 |
| TAGATTGG | 0.985 |
| CCACTCTCCT | 1.07 |
| TAGCTATTGA | 1.03 |
| AACCGAGCAT | 1.8 |
| GGTATCGGG | 0.952 |
| CATAGGCA | 1.11 |
| GGTGGTCTCG | 1.28 |
| CGACTCTGTT | 1.02 |
| CCCTATTCAA | 1.03 |
| AACATATCAA | 1.01 |
| CCGTGGGGTG | 1.08 |
| GTAGATTGGG | 0.979 |
| ATTTGATGCC | 1.06 |
| AAATGGGTGC | 0.966 |
| CACGCGGACG | 1.01 |
| TCCTCTACGC | 2.72 |

| Sequence | switch fluorescence ratio |
| --- | --- |
| CTTGTGGAGG | 1.01 |
| ATACATGGCA | 0.981 |
| TACTTGCCGG | 1.51 |
| ATGCTGAATT | 1 |
| CGGATCCGCT | 0.937 |
| ATTCAGACTT | 1.01 |
| TGCGACTAGT | 1.03 |
| CAGGCCTGCC | 1.14 |
| TTAGCCGGG | 0.989 |
| TTAGTGCAAC | 1.04 |
| TCAATAGTGT | 1.01 |
| AACCATGGAG | 1.02 |
| TGTATTGCCC | 1.01 |
| TCCGGTG | 1.86 |
| TGAGCCACCC | 0.966 |
| GGCAGGAGTG | 1.01 |
| CATCCTTGTC | 1.06 |
| CGTGTGGAAG | 1 |
| GGGTCGCCCG | 0.942 |
| GGCATAAGCG | 0.988 |
| TCAATTGTCT | 1.02 |
| TATGATTGTT | 1.01 |
| GCTGAATAGG | 1.01 |
| GTTTACGCTA | 1.29 |
| GAAAGAAACA | 0.946 |
| AAATGTTGGA | 1.01 |

| Sequence | switch fluorescence ratio |
| --- | --- |
| TAAGCAAA | 1.04 |
| TCTCGTTTGG | 0.992 |
| CATCGTGCGC | 1.02 |
| AAACCAGTGC | 1.25 |
| GGGATGCTAG | 0.939 |
| GGTCCACGGG | 1.01 |
| CACTGTGGG | 1 |
| TTGAGAACGC | 1.05 |
| GACAGCCTAC | 1.89 |
| TGGCCTTCTT | 1.01 |
| GTAGTAGTTA | 1.05 |
| CGCTTAGATA | 1.03 |
| ATTGAATGCA | 1.01 |
| TTCGTCAACT | 0.979 |
| ACGGGCTGGT | 1.03 |
| TAAAGTGATC | 0.938 |
| CTTATGCCGC | 0.934 |
| TCGAAAAGTG | 1 |
| TCTGCATAAG | 1.15 |
| GGTGCGAGCT | 0.988 |
| TTACCGATCA | 1.02 |
| TCATTTACTC | 1.05 |
| CGATAGTTTA | 0.996 |
| CTAGGTAGTT | 1.02 |
| CCGTACTTGA | 1.05 |
| GTTTCCATAG | 0.997 |

| Sequence | switch fluorescence ratio |
| --- | --- |
| TTAAATTGGA | 0.993 |
| TAGTGCCCCT | 1.03 |
| CTCGGTTATG | 0.974 |
| AATCTTAC | 1.25 |
| TAGCTTGGAT | 0.994 |
| AGGTAAACAA | 0.964 |
| CTAAGAAAGG | 0.939 |
| TTCAGCCCTG | 1.04 |
| TTTCTAAGCT | 1 |
| AGATTCTCA | 1 |
| ACTGCGATG | 1.07 |
| GCCGAGGCGT | 1.01 |
| TTACCCCAGC | 1.23 |
| TTCCGCTTGA | 1.03 |
| CATTCGACGG | 0.997 |
| GGTTTGTGGA | 1.01 |
| GGAGTGTTCG | 1.01 |
| TGATGAAGGG | 1.01 |
| TTGTTAAGCT | 1 |
| CGTCGTGCGC | 0.991 |
| TCAGTAGAAG | 1.02 |
| GCCTTGGTAG | 1.03 |
| GATTAAGCGA | 1.06 |
| AGCTCAAGT | 0.98 |

— the supplement of paper PMC10126150
